“And” between values parts separate entries of the source, which are not always exact repeats. Equal values may be shown once. Over roughly 5,300 compounds, “PER2::LUC luminescence relative to vehicle control” has its median near 0.96; the highest 2% begin near 1.3. The list shows a part of the results.
Tested on: mPer2Luc MEF
Assay: PER2::LUC luminescence relative to vehicle control (fold of vehicle); higher = higher PER2::LUC reporter signal
Conditions: 10 µM
Method in brief: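 Compounds from commercial libraries were added at 10 μM to 384-well plates seeded 48 h earlier with ~3000 mPer2Luc mouse embryonic fibroblasts per well. The cells were kept in DMEM with 10% FBS at 37 °C and 5% CO2. Luminescence was read with ONE-Glo 24 h and 30 h after treatment, then an alamarBlue viability assay was run. Values are PER2::LUC luminescence relative to vehicle control, as fold change.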

| Structure (SMILES) | PER2::LUC luminescence (time after treatment 24 h) | PER2::LUC luminescence (time after treatment 30 h) |
| --- | --- | --- |
| O=C(O)c1cc(=O)c2c(Cl)cc(Cl)cc2[nH]1 | 1.04 | 1 |
| CCCNC(=O)Nc1ccc(Oc2ncnc3cc(OC)c(OC)cc23)cc1Cl | 0.857 | 0.803 |
| CC(=O)c1c(C)c2cnc(Nc3ccc(N4CCNCC4)cn3)nc2n(C2CCCC2)c1=O | 0.613 and 0.634 | 0.89 and 0.451 |
| CCN1C[C@H](C)n2c(c(O)c3c(=O)n(Cc4ccc(F)c(Cl)c4)nc(C(=O)NC)c32)C1=O | 1.29 | 1.16 |
| COc1ccc2cc(C(C)C(=O)Oc3ccc(C(N)=S)cc3)ccc2c1 (stereo not drawn) | 1.11 | 0.978 |
| O=Nc1ccc2oc(=O)ccc2c1 | 0.874 | 0.993 |
| N#CCC(=O)NN | 1.01 and 0.791 | 0.944 and 0.993 |
| CN1CCCN=C1/C=C/c1cccc(O)c1 | 1.11 | 0.993 |
| CC(N)CCCC(C)(C)O (stereo not drawn) | 1.09 | 1.09 |
| CCCCC[C@H](O)/C=C/[C@@H]1[C@H]2C/C(=C/CCCC(=O)O)C[C@H]2C[C@H]1O | 1.01 | 0.947 |
| COc1nccnc1NS(=O)(=O)c1ccc(N)cc1 | 1 | 1.97 |
| CNC(=O)c1ccc(Nc2ncc(C(F)(F)F)c(NCc3nccnc3N(C)S(C)(=O)=O)n2)cc1 | 0.644 | 0.601 |
| CCOC(=O)[C@@H](N)CCC(=O)N[C@@H](CSCc1ccccc1)C(=O)N[C@@H](C(=O)OCC)c1ccccc1 | 1.02 | 0.981 |
| NCCCC[C@H](NC(=O)[C@@H](Cc1cc(Br)c(O)c(Br)c1)NC(=O)N1CCC(N2Cc3ccccc3NC2=O)CC1)C(=O)N1CCN(c2ccncc2)CC1 | 1.01 | 0.866 |
| Cc1ccc(NC(=O)C2(c3ccc4c(c3)OC(F)(F)O4)CC2)nc1-c1cccc(C(=O)O)c1 | 1.2 and 1.15 | 1.16 and 1.12 |
| CC(C)OC(=O)C(C)(C)Oc1ccc(C(=O)c2ccc(Cl)cc2)cc1 | 0.923 | 0.88 |
| O=C1c2ccccc2C(=O)C1c1ccc(Br)cc1 | 0.477 | 0.974 |
| NC(=O)CC[C@H](N)C(=O)O | 1 and 0.849 | 0.904 and 0.867 |
| CC=CC1=C(C(=O)O)N2C(=O)[C@@H](NC(=O)[C@H](N)c3ccc(O)cc3)[C@H]2SC1 | 0.904 and 0.846 | 0.905 and 0.854 |
| O=S(=O)(O)Oc1ccc(C(c2ccc(OS(=O)(=O)O)cc2)c2ccccn2)cc1 | 0.914 | 0.992 |
| CCOC(=S)SSC(=S)OCC | 1.21 | 1.04 |

| Structure (SMILES) | PER2::LUC luminescence (time after treatment 24 h) | PER2::LUC luminescence (time after treatment 30 h) |
| --- | --- | --- |
| CN1C(=O)C(Cc2c[nH]c3ccccc23)NC1=S (stereo not drawn) | 1.15 | 1.36 |
| CC1(C)C(O[C@@H]2OC[C@@H](O)[C@H](O)[C@H]2O)CC[C@]23CC24CC[C@]2(C)[C@@H]([C@@]5(C)CC[C@@H](C(C)(C)O)O5)[C@H](O)C[C@@]2(C)C4C[C@@H](O[C@@H]2O[C@H](CO)[C@@H](O)[C@H](O)[C@H]2O)C13 (stereo partly drawn) | 0.94 | 0.957 |
| Cc1cc2c(s1)Nc1ccccc1N=C2N1CCN(C)CC1 | 0.969 | 0.934 |
| CC1/C=C/C=C/C=C/C=C/C=C/C=C/C=C/C(OC2O[C@H](C)[C@@H](O)[C@H](N)[C@@H]2O)CC(O)C(C(=O)O)C(O)CC(=O)CC(O)CC(O)CC(O)CC(=O)CCCC(=O)CC(=O)OC1C(C)CC(C)C(O)CC(=O)c1ccc(N)cc1 (stereo partly drawn) | 0.901 | 0.885 |
| NC(=O)c1cccc2ncc(-c3ccc(Cl)cc3)nc12 | 1.12 | 1.16 |
| COc1cc2ncnc(Nc3cccc(Cl)c3)c2cc1OC | 0.991 and 0.715 | 0.978 and 0.705 |
| O=c1oc2cc(O)ccc2s1 | 1.07 | 0.93 |
| COc1cc2ncnc(-n3nc(-c4ccccn4)nc3N)c2cc1OC | 0.997 | 1.07 |
| CCOc1ccc2nc(S(N)(=O)=O)sc2c1 | 1.19 | 1.28 |
| c1coc(CNc2ncnc3[nH]cnc23)c1 | 0.996 | 1.06 |
| CS(=O)(=O)c1ccc(-c2nnc(/C=C/c3nnc(-c4ccc(C#N)cc4)o3)n2-c2ccccc2Cl)nc1 | 1.05 | 0.985 |
| COc1cccc(NCC(O)Cn2c3ccc(Br)cc3c3cc(Br)ccc32)c1 (stereo in doubt) | 0.88 | 0.955 |
| O=C(O)[C@H](CC(=O)N1C[C@H]2CCCC[C@H]2C1)Cc1ccccc1 | 1.24 | 1.25 |
| C[C@]12CCC3=C4CCC(=O)C=C4CC[C@H]3[C@@H]1CC[C@@]2(O)CC#N | 0.945 | 0.989 |
| CCOC(=O)c1cnc2c(cnn2CC)c1NN=C(C)C | 0.954 | 0.82 |
| CN1CCCN(C(c2ccccc2)c2ccc(Cl)cc2)CC1 (stereo not drawn) | 0.562 | 0.602 |
| C[C@@H]1C[C@H]2[C@@H]3CCC4=CC(=O)C=C[C@]4(C)[C@@]3(Cl)[C@@H](O)C[C@]2(C)[C@@]1(OC(=O)c1ccco1)C(=O)CCl | 0.516 | 1.13 |
| Cc1cc(Br)c(O)c2ncccc12 | 1.19 | 0.958 |
| NC(=O)c1ccc(I)c([N+](=O)[O-])c1 | 0.937 and 0.926 | 0.982 and 0.956 |
| C#C[C@]1(O)CC[C@H]2[C@@H]3CCC4=CC(=O)CC[C@@H]4[C@H]3C(=C)C[C@@]21CC | 0.753 | 1.05 |
| O=C(O)c1cc2cc(Cc3cccnc3)ccc2o1 | 0.801 | 0.865 |

| Structure (SMILES) | PER2::LUC luminescence (time after treatment 24 h) | PER2::LUC luminescence (time after treatment 30 h) |
| --- | --- | --- |
| O=C(O)c1cc(/N=N/c2ccc(S(=O)(=O)Nc3ccccn3)cc2)ccc1O | 0.808 | 0.855 |
| CCCCCCCCCCCCCCCC(=O)O | 0.746 | 1.06 |
| N#C/C(=C\c1ccc(O)c(O)c1)C(=O)NCCCc1ccccc1 | 1.06 | 1.14 |
| C/C(=C\C(=O)OCCCCCCCCC(=O)O)C[C@@H]1OC[C@H](C[C@@H]2O[C@H]2[C@@H](C)[C@H](C)O)[C@@H](O)[C@H]1O | 1.12 | 1.11 |
| CC(CCCCCC(=O)Nc1ccc(C(F)(F)F)cc1)NCCc1cnc[nH]1 (stereo not drawn) | 0.89 | 1.01 |
| CN/C(=N\CCSCc1nc[nH]c1C)NC#N | 0.925 | 1.02 |
| c1ccc(C2CN3CCSC3=N2)cc1 (single isomer, unassigned; (-)) | 1.15 | 0.882 |
| N[C@@H](CSCSC[C@H](N)C(=O)O)C(=O)O | 0.992 | 1.08 |
| O=C(O)c1cc(N(Cc2ccccc2O)Cc2cc(O)ccc2O)ccc1O | 1.05 | 1.03 |
| C[C@]12CCC(=O)C=C1[C@@H]1C[C@@H]1[C@H]1[C@@H]3[C@@H]4C[C@@H]4[C@@]4(CCC(=O)O4)[C@@]3(C)CC[C@@H]12 | 0.925 | 1.03 |
| CC1=CC(=O)CC(C)(C)C1(O)/C=C/C(C)=C\C(=O)O (racemic) | 1.01 | 1.02 |
| N#Cc1cc(CN2CCC(Nc3ncnc4sc(Cl)cc34)CC2)ccc1F | 0.839 | 0.912 |
| COc1ccc2cc([C@H](C)C(=O)O)ccc2c1 | 0.987 and 1.09 and 0.7 | 0.972 and 0.822 and 0.852 |
| CS(=O)(=O)Nc1c(O)ccc2c1CCCC2C1=NCCN1 (stereo not drawn) | 1.08 | 1.06 |
| Nc1ncnc2c1ncn2[C@@H]1O[C@H](COP(=O)(O)OP(=O)(O)OP(=O)(O)OP(=O)(O)OC[C@@H]2O[C@H](n3cnc4c(N)ncnc43)C(O)[C@@H]2O)[C@H](O)C1O (stereo partly drawn) | 0.957 | 0.901 |
| Nc1cc(N2CCCCC2)nc(N)[n+]1[O-] | 1.09 | 1.04 |
| COc1ccc(C[C@H]2c3cc(OC)c(OC)cc3CC[N+]2(C)C)cc1OC | 0.944 | 0.889 |
| CC1=C(/C=C/C(C)=C/C=C/C(C)=C\CO)C(C)(C)CCC1 | 1.08 | 1.03 |
| O=C(O)c1ccc2nc(-c3cc(Cl)cc(Cl)c3)oc2c1 | 1.42 | 1.43 |
| C/C=C(/C(=C/C)c1ccc(O)cc1)c1ccc(O)cc1 | 0.911 | 0.979 |
| Cc1ncc([N+](=O)[O-])n1CC(C)O (stereo not drawn) | 0.949 and 1.15 | 1.08 and 1.1 |

| Structure (SMILES) | PER2::LUC luminescence (time after treatment 24 h) | PER2::LUC luminescence (time after treatment 30 h) |
| --- | --- | --- |
| CCNCc1cc(C(C)(C)C)c(O)c(C(C)(C)C)c1 | 1.04 | 0.978 |
| O=C(O)c1ccccc1OP(=O)(O)O | 0.88 | 1.03 |
| COC(=O)c1c(C)cc(OC(=O)c2c(C)cc(O)c(C=O)c2O)c(C)c1O | 0.967 | 0.979 |
| OC1(c2ccc(Cl)cc2)CCN(Cc2c[nH]c3ccccc23)CC1 | 0.66 | 0.717 |
| COc1ccccc1N1CCN(CCN(C(=O)c2ccc(I)cc2)c2ccccn2)CC1 | 0.942 | 0.975 |
| OCCn1cc(-c2cnc3nnn(Cc4ccc5ncccc5c4)c3n2)cn1 | 1.15 | 1.04 |
| CC1=C(/C=C/C(C)=C/C=C/C(C)=C/CO)C(C)(C)CCC1 | 1.35 and 1.26 and 1.07 | 1.26 and 1.06 and 1.11 |
| Oc1ccc(-c2nc(-c3ccc(F)cc3)c(-c3ccncc3)[nH]2)cc1 | 0.39 | 0.695 |
| N#CCc1ccccc1C#Cc1ccc(CCC(=O)O)c(F)c1 | 1.31 | 1.28 |
| O=C(Nc1ccc(S(=O)(=O)Nc2ccccc2Cl)c(Cl)c1)c1ccccn1 | 0.992 | 1.06 |
| CCC(NC(C)C)C(O)c1ccc(O)c2[nH]c(=O)ccc12 (stereo not drawn) | 1.03 | 0.916 |
| O=C(NC[C@H](O)CO)c1ccncc1Nc1ccc(I)cc1F | 0.286 | 0.223 |
| O=C(O)c1ccc2cc(-c3ccc(O)c(C45CC6CC(CC(C6)C4)C5)c3)ccc2c1 | 1.59 | 1.63 |
| COc1ccc([C@@H](C)C(=O)c2ccc(O)cc2O)cc1 | 1.1 | 1.08 |
| O=C(/C=C/c1ccccc1)c1ccc(O[C@@H]2O[C@H](CO)[C@@H](O)[C@H](O)[C@H]2O)cc1O | 1.21 | 1.27 |
| O=C(O)[C@@]1(CCCCCCOc2ccc(Cl)cc2)CO1 | 0.936 | 1.01 |
| C=C[C@H]1CN2CC[C@H]1C[C@H]2[C@H](O)c1ccnc2ccc(OC)cc12 | 1.04 and 0.874 and 0.512 | 0.948 and 0.925 and 1.01 |
| CC[C@H](C)[C@H](NC(=O)[C@H](Cc1ccc(O)cc1)NC(=O)[C@@H](NC(=O)[C@H](CCCNC(=N)N)NC(=O)[C@@H](N)CC(=O)O)C(C)C)C(=O)N[C@@H](Cc1c[nH]cn1)C(=O)N1CCC[C@H]1C(=O)O | 0.993 | 0.917 |
| c1cc(NC2CCNCC2)nc(-c2cnc3ccccn23)c1 | 0.506 | 0.487 |
| CC1(C)S[C@@H]2[C@H](NC(=O)[C@H](N)c3ccccc3)C(=O)N2[C@H]1C(=O)O | 1.04 and 0.885 | 0.911 and 0.808 |
| Cc1ccccc1C(C(=O)NC1CCCCC1)N(C(=O)Cn1ccnc1C)c1cccc(F)c1 (stereo not drawn) | 0.955 | 0.931 |
